The record followed here is the supplement of paper PMC4604168 (melanoma cell lines).

The list shows a part of the results. Most values come without repeats; read them as rough.
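Further: cells treated in 1,536-well plates, then fixed and DAPI-stained, with nuclei counted from automated high-throughput microscope images.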

The experiment concerns SkMel28. Description: cell count relative to DMSO control; melanoma cells; higher = more viable cells. The note with it: library dose: standard library concentration; 72 h.
As for `COc1cc([C@@H]2c3cc4c(cc3[C@@H](O[C@@H]3O[C@@H]5CO[C@@H](C)O[C@H]5[C@H](O)[C@H]3O)[C@H]3COC(=O)[C@H]23)OCO4)cc(OC)c1O` [etoposide] + NC(=O)Nc1cc(-c2cccc(F)c2)sc1C(=O)N[C@H]1CCCNC1 [AZD7762] (first compound 0.1 µM, partner dose 0.1 µM), the cell count was 41%.

With `Cn1cnc2c(F)c(Nc3ccc(Br)cc3Cl)c(C(=O)NOCCO)cc21` [selumetinib] + CN(C)S(=O)(=O)c1ccc2c(c1)/C(=C/c1cc3c([nH]1)CCCC3)C(=O)N2 [SU6656] (first compound 0.075 µM, partner dose 2 µM), the cell count stood at 44%.

In turn, `C[C@]1(O)C[C@@H](c2nc(-c3ccc4ccc(-c5ccccc5)nc4c3)c3c(N)nccn32)C1` + CO[C@@H]1[C@H](N(C)C(=O)c2ccccc2)C[C@H]2O[C@]1(C)n1c3ccccc3c3c4c(c5c6ccccc6n2c5c31)C(=O)NC4 [Midostaurin] (first compound 2 µM, partner dose 0.4 µM) returned a cell count of 61.9%.

In the case of `Cn1cnc2c(F)c(Nc3ccc(Br)cc3Cl)c(C(=O)NOCCO)cc21` [selumetinib] + C[C@@H]1CCN(C(=O)CC#N)C[C@@H]1N(C)c1ncnc2[nH]ccc12 [CP690550] (first compound 0.075 µM, partner dose 5 µM), the cell count was determined as 71.3%.

On to `Cn1cnc2c(F)c(Nc3ccc(Br)cc3Cl)c(C(=O)NOCCO)cc21` [selumetinib] + OCCn1cc(-c2cnc3nnn(Cc4ccc5ncccc5c4)c3n2)cn1 [PF04217903] (first compound 0.075 µM, partner dose 5 µM), for which the cell count was 49.5%.

Compound `CCN(CC)CCNC(=O)c1c(C)[nH]c(/C=C2\C(=O)Nc3ccc(F)cc32)c1C` [sunitinib] + CC1(C)NC(=O)N(c2ccc([N+](=O)[O-])c(C(F)(F)F)c2)C1=O [nilutamide] (first compound 2 µM, partner dose 5 µM) returned a cell count of 60.9%.

Take `Cn1cnc2c(F)c(Nc3ccc(Br)cc3Cl)c(C(=O)NOCCO)cc21` [selumetinib] + CO[C@@H]1[C@H](N(C)C(=O)c2ccccc2)C[C@H]2O[C@]1(C)n1c3ccccc3c3c4c(c5c6ccccc6n2c5c31)C(=O)NC4 [Midostaurin] (first compound 0.075 µM, partner dose 0.4 µM): the cell count is 62%.

`COc1cc([C@@H]2c3cc4c(cc3[C@@H](O[C@@H]3O[C@@H]5CO[C@@H](C)O[C@H]5[C@H](O)[C@H]3O)[C@H]3COC(=O)[C@H]23)OCO4)cc(OC)c1O` [etoposide] + Cc1cc(N2CCOCC2)cc2[nH]c(-c3c(NC[C@@H](O)c4cccc(Cl)c4)cc[nH]c3=O)nc12 [BMS536924] (first compound 0.1 µM, partner dose 1 µM) returned a cell count of 79.2%.

For `Cn1cnc2c(F)c(Nc3ccc(Br)cc3Cl)c(C(=O)NOCCO)cc21` [selumetinib] + C=CCn1c(=O)c2cnc(Nc3ccc(N4CCN(C)CC4)cc3)nc2n1-c1cccc(C(C)(C)O)n1 [MK1775] (first compound 0.075 µM, partner dose 0.1 µM), the cell count came out at 28.6%.

In the case of `COc1cc([C@@H]2c3cc4c(cc3[C@@H](O[C@@H]3O[C@@H]5CO[C@@H](C)O[C@H]5[C@H](O)[C@H]3O)[C@H]3COC(=O)[C@H]23)OCO4)cc(OC)c1O` [etoposide] + CO[C@@H]1[C@H](N(C)C(=O)c2ccccc2)C[C@H]2O[C@]1(C)n1c3ccccc3c3c4c(c5c6ccccc6n2c5c31)C(=O)NC4 [Midostaurin] (first compound 0.1 µM, partner dose 0.4 µM), the cell count came out at 69.9%.

The compound `CCN(CC)CCNC(=O)c1c(C)[nH]c(/C=C2\C(=O)Nc3ccc(F)cc32)c1C` [sunitinib] + C[C@@H]1CCN(C(=O)CC#N)C[C@@H]1N(C)c1ncnc2[nH]ccc12 [CP690550] (first compound 2 µM, partner dose 5 µM) gave a cell count of 63.9%.

Take `COc1cc([C@@H]2c3cc4c(cc3[C@@H](O[C@@H]3O[C@@H]5CO[C@@H](C)O[C@H]5[C@H](O)[C@H]3O)[C@H]3COC(=O)[C@H]23)OCO4)cc(OC)c1O` [etoposide] + Nc1ccn([C@@H]2O[C@H](CO)[C@@H](O)C2(F)F)c(=O)n1 [gemcitabine] (first compound 0.1 µM, partner dose 0.002 µM): the cell count amounted to 87.5%.
